In the test the target is T1, human IL-15Rα subunit (human, UniProt Q13261 31-267).
T1 construct: whole, on cells; Other IL-15 receptor subunits may be present on the same cells; also called IL-15 receptor alpha; IL-15Rα chain
Briefly: flow cytometry on PHA-activated human PBMCs, anti-FLAG biotinylated Ab and streptavidin-RED670. (In general: Flow cytometry measures light scatter and fluorescence of single cells or particles in a stream.)

Data on one molecule can be found in patent EP1627918A1 (Beth Israel Deaconess Medical Center, Inc., dated 2006).

T1 sequence (Q13261 31-267): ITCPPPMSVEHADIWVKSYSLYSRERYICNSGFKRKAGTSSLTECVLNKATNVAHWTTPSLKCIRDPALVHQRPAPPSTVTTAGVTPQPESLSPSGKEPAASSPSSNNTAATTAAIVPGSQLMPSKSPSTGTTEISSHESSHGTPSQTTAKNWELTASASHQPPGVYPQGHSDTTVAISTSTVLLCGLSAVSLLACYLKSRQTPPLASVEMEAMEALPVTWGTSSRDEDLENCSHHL

B1: FLAG-HMK-IL-15 (Q149D; Q156D) double mutant protein (ligand, not shown: small tags and cut ends)
chain: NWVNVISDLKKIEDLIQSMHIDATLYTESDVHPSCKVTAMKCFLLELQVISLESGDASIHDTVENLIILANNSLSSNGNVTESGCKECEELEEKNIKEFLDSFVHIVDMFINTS
notes: also called FLAG-HMK-IL-15 double mutant; double mutant IL-15
As for B1, the binding result is listed as “binds”.
